According to the supplement of paper PMC12632987:
In all, about 1,800 sequences were measured (“median log2 fold change of GCK-ALFA target abundance (FLAG IP / Myc IP barcode read proportion)”: median about 0.14, lowest 2% from about -0.84 on). The list shows a part of the results.

T1: TRAF2, Q12933
T1 chain: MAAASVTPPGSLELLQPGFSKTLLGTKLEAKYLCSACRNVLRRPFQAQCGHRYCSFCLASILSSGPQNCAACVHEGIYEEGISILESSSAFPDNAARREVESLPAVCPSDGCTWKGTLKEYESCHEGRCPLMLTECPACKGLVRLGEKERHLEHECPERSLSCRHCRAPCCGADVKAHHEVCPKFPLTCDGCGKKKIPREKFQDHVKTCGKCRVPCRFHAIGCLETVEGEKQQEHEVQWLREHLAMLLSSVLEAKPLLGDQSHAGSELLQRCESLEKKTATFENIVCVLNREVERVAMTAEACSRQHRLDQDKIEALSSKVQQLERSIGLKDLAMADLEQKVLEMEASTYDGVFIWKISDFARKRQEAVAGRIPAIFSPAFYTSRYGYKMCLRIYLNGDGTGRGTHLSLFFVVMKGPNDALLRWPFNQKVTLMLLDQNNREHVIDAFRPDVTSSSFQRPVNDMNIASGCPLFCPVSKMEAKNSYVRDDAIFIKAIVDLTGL

B1: traf2_out_5_189_2332 (protein)
chain: SEEEREREELREEAREAVEIANELLRLYTEEGLSPEEILARIREIAARLSPERANLLLGSTAALFEAYAISTGDEEARALAERVRELRRELLARRAAEAA
B2: traf2_out_17_178_1658 (protein)
chain: NKEEARKKISEATDKLIDLTRETAARLLAILEADGTASPEELAALREAQRLGSATTTLALLDRAVPRSPRAAEVAALRDDFRARSGELAKEIAEAYKEYE
B3: traf2_out_18_167_1850 (protein)
chain: EEEIRERRRELSDRLVELSEVVRAARAALQALDTDRSRVPAELARLEAAAASIPELQPLVAAARKALAAGDEAGLRATLEALIEKAQKLMNEVLKEYEAL
B4: traf2_out_13_95_1146 (protein)
chain: SKEVAEKIMEIADKMLEQKDAILDDLEAQLKAQGLLTPELEAALEEAKNSSISTAIHLLQELAKRYPEAKALLEAAIKQLQAIKTQAGKEVAKILKEEEE
B5: traf2_out_18_3_1903 (protein)
chain: KEEERKKLSDEIDKIVDEATAKAREVLDRLAERHPEVAERLARLRADLDAGGGAFGILEELAELAKELGDEELAKEIEEFLREKREKMQKLVDEYEKLIK
B6: traf2_out_6_166_2477 (protein)
chain: MEEEIERIKELAKKFDKYSPEVVIEAFEKVAKERDDRRARIARQLASAVRQAEKAGLPISTIITAYALGLIALGVPAEEIIELLEEILKEAEKIAKEKEK
B7: traf2_out_13_95_1140 (protein)
chain: SAETAAKIMAIADEMLEKSEAVLNELLEKAKKAGKLVEEIEEVLHLARYQSINEAIHKLKELAKKYPEFAEELNAAIEKLEAIRREAGRRVAEILKEEKE
B8: traf2_out_13_95_1162 (protein)
chain: DPETAKKIMEIADKMLDESLALLEELLKIAKEKGIAVEEIEEAIRAARYQSINEAIHLLEELAEKYPELKEELEATIEKLKALREKAGKEVAKILKEAEE
B9: traf2_out_16_104_1388 (protein)
chain: SAELDAKFEEIIKKLEEIAEEANKLMNELYQLYLKASPEDKEKISDALVEASELRREALEAAIEAKEMRKAGGDPEEAEKKLKELEARLKELKKKVEELK
B10: traf2_out_17_162_1655 (protein)
chain: SALEEQLAEIEEALRELEEETRRLREKLERISEYSKEELSDLMVEASEVKRRALELLQRIEELAPLLDPETAEELRRRLEEIIEEAQRIANEFYKEYEKK
B11: traf2_out_1_27_1001 (protein)
chain: SDEEERELLRRANREIGRASPEEQIEVIRRTLREALARGLDSPVHIATVLILSLGEPETRERALEAVEEVLREAGLPEEEIELLRRRVRSGFARLERLLA
B12: traf2_out_20_3_2256 (protein)
chain: SELREEALKELERAEKILKELEPKLPAEDAKALRDALKAAREALETDYSDALVEASELRRLALALAEKARAAGDEETAALLEELAEEMQRAAYYLSKIIE
B13: traf2_out_18_167_1852 (protein)
chain: EEEERERRRELSDRLVDLSEVKREARALIQALETDRSLAPAELAELEEAAKKVPELQPLVDKIRAALEAGDWEGARKAAEELIEKAQRLANEAIREYEAA
B14: traf2_out_15_180_1332 (protein)
chain: MTEEELEKRIELVAEVADEADERVREELAAAGVTSPEHLALARSGVRAVITHVFAGWEEEAEEVEEIVAARLPEELRPLFRRLVEEARRRAEEALERLKK
B15: traf2_out_9_17_2622 (protein)
chain: AEEREREREAILEAVEEVLKELVEKGYITEEEAEEILRRVREAIERGLSADEVRATFLGDIASILLFKKKYSVQEAQKIVGEAYRRFRRLMEERRARAAA
B16: traf2_out_13_95_1064 (protein)
chain: SRETAAKINALADEAEARALALLDAAREELADDPAIVAALDEARAAAETKGLRAAIHVLRQARAANPAHAEAFDALIAELEAIRRDLGRRVAEIIKEEKE
B17: traf2_out_1_27_1015 (protein)
chain: SDEELTKLIKETDKKIAEVSDEEAKKVVKEALKKAYELGPEDAMMLARTLIASQLDEERLKVIAEAAIEAFKELGFPEEEIERLRRIAESVLELNRKAKA
B18: traf2_out_11_169_871 (protein)
chain: KEAEFNRKLNDKALELNDKAKAELRAFAKELAKELGLDVAEVDAIFDAHKNSSLSAVAAALIAWFESKGEADAAAKILAKYEELKDEINKETSKFLKELE
B19: traf2_out_18_3_1902 (protein)
chain: KEEERKKLSDEIDKIVDEATAYARAVLDRLAAAHPEVAARLARLRADLEAGGGAFGILEALAELARELGEEELAEEIEEFIRKKRKEFQELVDKYEELIK
B20: traf2_out_18_167_1871 (protein)
chain: SEEMKKEYEELTDKLVYYSTVRRALLEILEALERSREEARALLEEKVAELPDSEVLKEALEVFETKSDEEFRAFLTSKAEELQKKANEAYKKLEELKKKM
B21: traf2_out_15_180_1327 (protein)
chain: MTEEELEKRIELANKVADAVQDKLAALLAAHPDLSEEEKAALRALARSLTTLLMNGEEEEAAAALAAAKARLSPRAAAVADELAAFAREVVAAAKKELAE
B22: traf2_out_3_89_2289 (protein)
chain: EEERERKIEEARERARRYVRGFRKNAERVAKEMLAEGMSLDTLRGVLEAARTAIVEVFRETLEEEGIDEETREELLEELDRELQAIVDEVVAAAEAARAA
B23: traf2_out_20_3_2103 (protein)
chain: KELEEELKKALEKAKKLLEEAAKLADKETAKKLEKLKKKVEASEELDYSDRLVELSEVRREVLKLAQEAKKAGKEKLAKVLEEAADALNKAMNLLMKIIE
B24: traf2_out_13_95_1222 (protein)
chain: SKEANEKLRKVSNDMLDKSEAVIDELEEKLAPYPETQPAMDEIRHAFNNGGIHAAIHKLREAAEKFPEVKELFEEAIEKLEAIRKEAGKEVAKIDKEDEE
B25: traf2_out_9_108_2597 (protein)
chain: MSREELADEIFEEVVGTVEEKVPEFKLSEEERENIRRTLLRIVRLSDISDRTTIRSITASLVLLSARDLSDETLEKIAEVLKEIDPSTKSTVDRTLSLLK
B26: traf2_out_13_95_1189 (protein)
chain: EEEKRKKYKEVTNAIADDLLAHADAQIAAITAATGDPALGAELRRVLNRYGVRALIHRIRELAAARPEHKALYDAAAADLEAKRREAGKRVAEAEKAIEA
B27: traf2_out_18_167_1846 (protein)
chain: EEEIEKQKRELSDRLVELSEVKRAARLTLQALETDPSKVPETLKKLEEEAKSIPELQPLVEKAKKALEAGDREGLRKTLEELIEKAQELMNEVLKEYEAL
B28: traf2_out_17_162_1505 (protein)
chain: SETKEKLEKLQKELEKLKKELEKLKKKLPKLKEMSKEELTDLLVEVSELKRRARELAEELKKLAKETGSEEAKKLLKEAEKLAEEAQRIANEVYKELEAK
B29: traf2_out_17_162_1627 (protein)
chain: SALAAERAAAEAELAALRAKLKELEEKAKRIDELSKEELTDLLVEASEARRRARELAERLRAWRAEHDDPALDTLIDEAEAVAEEFQRLANLFYKKLLEK

Target: T1, TRAF2, Q12933
Assay: median log2 fold change of GCK-ALFA target abundance (FLAG IP / Myc IP barcode read proportion) (log2 ratio); each designed protein is fused to an ALFA-tag nanobody in HEK293 cells to bring the named protein to FLAG-tagged glucokinase (GCK); Myc marks an untargeted standard; higher = target protein stabilised (more abundant)
Conditions: target protein: 3xFLAG-MCP-GCK-ALFA reporter; HEK293 landing pad (RPLP)
Outline: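 Binders fused to an ALFA nanobody were recombined as a library into HEK293 landing-pad cells, which were induced with 2 μg mL^−1 doxycycline and then transfected to express a FLAG-tagged target and a Myc-tagged standard. After 48 h, circular RNA barcodes recovered by anti-FLAG and anti-Myc immunoprecipitation of lysates were reverse transcribed, amplified and sequenced. Each binder's target abundance is the median log2 ratio of FLAG to Myc barcode read proportions, from barcodes present at ≥10^−7 in both replicates, binders carrying ≥3 barcodes per replicate, a 10^−6 pseudocount and pooled replicates.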

Binder | median log2 fold change
B1 | -0.801
B2 | 0.191
B3 | 0.197
B4 | -0.587
B5 | 0.294
B6 | -0.362
B7 | 0.0238
B8 | 0.0847
B9 | 0.392
B10 | 0.458
B11 | 0.184
B12 | 0.278
B13 | 0.22
B14 | -0.0893
B15 | -0.226
B16 | -0.204
B17 | 0.412
B18 | 0.0612
B19 | 0.271
B20 | 0.272
B21 | 0.281
B22 | -0.809
B23 | 0.103
B24 | 0.236
B25 | -0.619
B26 | -0.147
B27 | 0.318
B28 | -0.133
B29 | 0.326
